Data published in patent US20250340652A1 (CHENGDU DI AO PHARMACEUTICAL GROUP, published 2025).

Experiments:
CC1H-Biotin [1] = target: T1, CC1H-Biotin (human, UniProt Q13018 21-367, biotin by EZ-Link Sulfo-NHS-LC-Biotin, 1.80 mol Biotin/mol protein; sites not given); assay: BLI (Octet N1), CC1H-Biotin on SA sensor; BLI, CC1H-Biotin on sensor; no binding, also no significant binding in ELISA
T1 construct: also called biotin-labeled CC1H

CC1H-Biotin [2] = target: T1, CC1H-Biotin; assay: BLI (Octet N1), CC1H-Biotin on SA sensor, antibody 76.6-8.5 nM
Procedure: Sartorius Octet® N1 molecular interaction instrument was used, the SA sensor (Sartorius, Octet® Streptavidin (SA) Biosensor, 18-5019) was selected.
The sensor was immersed in a PBSTB buffer (0.02% Tween-20 and 0.1% BSA were added in the PBS buffer) to be pre-wetted for 10 min or longer, and loaded onto the molecular interaction instrument.
The association constant (Ka), dissociation constant (Kd), and affinity constant (KD) were calculated and illustrated in Table 5 for details.

B1: B88 (antibody, human IgG4, kappa)
heavy: QVQLVQSGAEVKKPGSSVKVSCKASGGTFSSYTISWVRQAPGQGLEWMGRIIPILGIANYAQKFQGRVTITADKSTSTAYMELSSLRSEDTAVYYCATGVGMVRGDPWGQGTLVTVSSASTKGPSVFPLAPCSRSTSESTAALGCLVKDYFPEPVTVSWNSGALTSGVHTFPAVLQSSGLYSLSSVVTVPSSSLGTKTYTCNVDHKPSNTKVDKRV[human IgG4 Fc not shown]
light: [about 120 residues not shown][about 100 residues not shown]
notes: also called […]
B1: no binding (tested: 76.6 nM~8.5 nM) (CC1H-Biotin [1]).

B2: B88 (IgG4SP) (antibody)
heavy: QVQLVQSGAEVKKPGSSVKVSCKASGGTFSSYTISWVRQAPGQGLEWMGRIIPILGIANYAQKFQGRVTITADKSTSTAYMELSSLRSEDTAVYYCATGVGMVRGDPWGQGTLVTVSSASTKGPSVFPLAPCSRSTSESTAALGCLVKDYFPEPVTVSWNSGALTSGVHTFPAVLQSSGLYSLSSVVTVPSSSLGTKTYTCNVDHKPSNTKVDKRV[human IgG4 Fc with S228P (EU numbers) not shown]
light: [about 120 residues not shown][about 100 residues not shown]
notes: IgG4SP (S228P in the hinge, already in the heavy chain entry); also called B88SP; […]
For B2, the Kd (CC1H-Biotin [2]) was 0.145 nM, the koff (CC1H-Biotin [2]) was 8.04e-05 s⁻¹ and the kon (CC1H-Biotin [2]) was 556000 M⁻¹ s⁻¹.
